In the supplement of paper PMC8728848:
The list shows a part of the results.

Tests used:
Experiment in all cases: glycan array binding signal (z-score within array); higher = stronger binding
Conditions in all cases: glycan notation: IUPAC condensed, linker removed
GlcNAc(b1-3)Man = target: GlcNAc(b1-3)Man
How it was run: (§1)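 From the Consortium for Functional Glycomics database, 3228 arrays were curated, keeping only those whose protein sequence was available. Binding is given as a within-array Z-score averaged across arrays sharing a protein sequence and across linkers. Negative Z-scores can be read as non-binding.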

[1] = target: GlcNAc(b1-3)[GlcNAc(b1-4)][GlcNAc(b1-6)]GlcNAc
How it was run: as §1

[2] = target: GlcNAc(b1-3)[GlcNAc(b1-6)]Gal(b1-4)GlcNAc
How it was run: as §1

[3] = target: GlcNAc(b1-3)[GlcNAc(b1-6)]GalNAc
How it was run: as §1

[4] = target: GlcNAc(b1-3)[GlcNAc(b1-6)]GlcNAc(b1-4)GlcNAc
How it was run: as §1

[5] = target: GlcNAc(b1-4)Gal(b1-4)GlcNAc
How it was run: as §1

GlcNAc(b1-4)GlcNAc = target: GlcNAc(b1-4)GlcNAc
How it was run: as §1

[6] = target: GlcNAc(b1-4)GlcNAc(b1-4)GlcNAc
How it was run: as §1

[7] = target: GlcNAc(b1-4)GlcNAc(b1-4)GlcNAc(b1-4)GlcNAc(b1-4)GlcNAc
How it was run: as §1

[8] = target: GlcNAc(b1-4)GlcNAc(b1-4)GlcNAc(b1-4)GlcNAc(b1-4)GlcNAc(b1-4)GlcNAc
How it was run: as §1

[9] = target: GlcNAc(b1-4)[GlcNAc(b1-6)]GalNAc
How it was run: as §1

[10] = target: GlcNAc(b1-6)Gal(b1-4)GlcNAc
How it was run: as §1

GlcNAc(b1-6)GalNAc = target: GlcNAc(b1-6)GalNAc
How it was run: as §1

[11] = target: GlcNAc6S(b1-3)Gal(b1-4)GlcNAc
How it was run: as §1

Kdn(a2-3)Gal(b1-3)GalNAc = target: Kdn(a2-3)Gal(b1-3)GalNAc
How it was run: as §1

Kdn(a2-3)Gal(b1-3)GlcNAc = target: Kdn(a2-3)Gal(b1-3)GlcNAc
How it was run: as §1

Kdn(a2-3)Gal(b1-4)Glc = target: Kdn(a2-3)Gal(b1-4)Glc
How it was run: as §1

Kdn(a2-3)Gal(b1-4)GlcNAc = target: Kdn(a2-3)Gal(b1-4)GlcNAc
How it was run: as §1

[12] = target: Kdn(a2-3)Gal(b1-4)[Fuc(a1-3)]GlcNAc
How it was run: as §1

Kdn(a2-6)Gal(b1-4)GlcNAc = target: Kdn(a2-6)Gal(b1-4)GlcNAc
How it was run: as §1

[13] = target: Man(a1-2)Man(a1-2)Man(a1-3)Man
How it was run: as §1

[14] = target: Man(a1-2)Man(a1-2)Man(a1-6)[Man(a1-3)]Man
How it was run: as §1

Man(a1-2)Man(a1-3)Man = target: Man(a1-2)Man(a1-3)Man
How it was run: as §1

[15] = target: Man(a1-2)Man(a1-3)[Man(a1-2)Man(a1-6)]Man
How it was run: as §1

[16] = target: Man(a1-2)Man(a1-3)[Man(a1-2)Man(a1-6)]Man(a1-6)[Man(a1-2)Man(a1-2)Man(a1-3)]Man
How it was run: as §1

[17] = target: Man(a1-2)Man(a1-3)[Man(a1-2)Man(a1-6)]Man(a1-6)[Man(a1-2)Man(a1-2)Man(a1-3)]Man(b1-4)GlcNAc(b1-4)GlcNAc
How it was run: as §1

[18] = target: Man(a1-2)Man(a1-3)[Man(a1-6)]Man(a1-6)[Man(a1-2)Man(a1-3)]Man(b1-4)GlcNAc(b1-4)GlcNAc
How it was run: as §1

[19] = target: Man(a1-2)Man(a1-6)[Man(a1-3)]Man(a1-6)[Man(a1-2)Man(a1-2)Man(a1-3)]Man
How it was run: as §1

[20] = target: Man(a1-2)Man(a1-6)[Man(a1-3)]Man(a1-6)[Man(a1-2)Man(a1-2)Man(a1-3)]Man(b1-4)GlcNAc(b1-4)GlcNAc
How it was run: as §1

Man(a1-3)[Man(a1-6)]Man = target: Man(a1-3)[Man(a1-6)]Man
How it was run: as §1

[21] = target: Man(a1-3)[Man(a1-6)]Man(a1-6)[Man(a1-2)Man(a1-3)]Man(b1-4)GlcNAc(b1-4)GlcNAc
How it was run: as §1

[22] = target: Man(a1-3)[Man(a1-6)]Man(a1-6)[Man(a1-3)]Man
How it was run: as §1

[23] = target: Man(a1-3)[Man(a1-6)]Man(a1-6)[Man(a1-3)]Man(b1-4)GlcNAc(b1-4)GlcNAc
How it was run: as §1

[24] = target: Man(a1-3)[Man(a1-6)]Man(b1-4)GlcNAc(b1-4)GlcNAc
How it was run: as §1

[25] = target: Man(a1-3)[Man(a1-6)]Man(b1-4)GlcNAc(b1-4)[Fuc(a1-6)]GlcNAc
How it was run: as §1

Man(a1-6)Man = target: Man(a1-6)Man
How it was run: as §1

Man(b1-4)GlcNAc = target: Man(b1-4)GlcNAc
How it was run: as §1

MurNAc(b1-4)GlcNAc = target: MurNAc(b1-4)GlcNAc
How it was run: as §1

Neu5Ac(a2-3)Gal = target: Neu5Ac(a2-3)Gal
How it was run: as §1

[26] = target: Neu5Ac(a2-3)Gal(b1-3)GalNAc
How it was run: as §1

[27] = target: Neu5Ac(a2-3)Gal(b1-3)GalNAc(b1-3)Gal(a1-4)Gal(b1-4)Glc
How it was run: as §1

[28] = target: Neu5Ac(a2-3)Gal(b1-3)GalNAc(b1-3)Gal(b1-4)GlcNAc
How it was run: as §1

[29] = target: Neu5Ac(a2-3)Gal(b1-3)GalNAc(b1-4)[Neu5Ac(a2-3)]Gal(b1-4)Glc
How it was run: as §1

[30] = target: Neu5Ac(a2-3)Gal(b1-3)GalNAc(b1-4)[Neu5Ac(a2-8)Neu5Ac(a2-3)]Gal(b1-4)Glc
How it was run: as §1

[31] = target: Neu5Ac(a2-3)Gal(b1-3)GalNAc6S
How it was run: as §1

B1: HHA (Hippeastrum hybrid) (protein)
chain: MQQDCNLVLYDVDKPIWASNTGGLARDCHLNMQSDGNLVVYAPRNQVIWASNTQGENGNYVCILQKDRNVVIYGTARWATGTNIHGAGIVGVPGSAPQNTTAEMIKLVRKYLITK
GlcNAc(b1-3)Man
  glycan array binding signal (z-score): -0.203
[1]
  glycan array binding signal (z-score): -0.199
[2]
  glycan array binding signal (z-score): -0.22
[3]
  glycan array binding signal (z-score): -0.21
[4]
  glycan array binding signal (z-score): -0.264
[5]
  glycan array binding signal (z-score): -0.198
GlcNAc(b1-4)GlcNAc
  glycan array binding signal (z-score): -0.211
[6]
  glycan array binding signal (z-score): -0.143
[7]
  glycan array binding signal (z-score): -0.147
[8]
  glycan array binding signal (z-score): -0.169
[9]
  glycan array binding signal (z-score): -0.216
[10]
  glycan array binding signal (z-score): -0.211
GlcNAc(b1-6)GalNAc
  glycan array binding signal (z-score): -0.212
[11]
  glycan array binding signal (z-score): -0.201
Kdn(a2-3)Gal(b1-3)GalNAc
  glycan array binding signal (z-score): -0.011
Kdn(a2-3)Gal(b1-3)GlcNAc
  glycan array binding signal (z-score): -0.219
Kdn(a2-3)Gal(b1-4)Glc
  glycan array binding signal (z-score): -0.188
Kdn(a2-3)Gal(b1-4)GlcNAc
  glycan array binding signal (z-score): -0.164
[12]
  glycan array binding signal (z-score): -0.197
Kdn(a2-6)Gal(b1-4)GlcNAc
  glycan array binding signal (z-score): -0.201
[13]
  glycan array binding signal (z-score): 0.729
[14]
  glycan array binding signal (z-score): 2.11
Man(a1-2)Man(a1-3)Man
  glycan array binding signal (z-score): 0.529
[15]
  glycan array binding signal (z-score): 1.99
[16]
  glycan array binding signal (z-score): 1.37
[17]
  glycan array binding signal (z-score): 0.293
[18]
  glycan array binding signal (z-score): 3.35
[19]
  glycan array binding signal (z-score): 2.72
[20]
  glycan array binding signal (z-score): 3.81
Man(a1-3)[Man(a1-6)]Man
  glycan array binding signal (z-score): 5.62
[21]
  glycan array binding signal (z-score): 5.57
[22]
  glycan array binding signal (z-score): 5.35
[23]
  glycan array binding signal (z-score): 5.15
[24]
  glycan array binding signal (z-score): 8.3
[25]
  glycan array binding signal (z-score): 6.07
Man(a1-6)Man
  glycan array binding signal (z-score): -0.189
Man(b1-4)GlcNAc
  glycan array binding signal (z-score): -0.208
MurNAc(b1-4)GlcNAc
  glycan array binding signal (z-score): -0.213
Neu5Ac(a2-3)Gal
  glycan array binding signal (z-score): -0.214
[26]
  glycan array binding signal (z-score): 0.803
[27]
  glycan array binding signal (z-score): -0.2
[28]
  glycan array binding signal (z-score): -0.207
[29]
  glycan array binding signal (z-score): -0.218
[30]
  glycan array binding signal (z-score): -0.192
[31]
  glycan array binding signal (z-score): -0.218
